These results are taken from PubChem BioAssay AID1346428 (National Center for Advancing Translational Sciences (NCATS), 2018).

Hit rate of the full screen: of about 48,000 compounds, about 1,200 (2.5%) were called active. Another 2% or so got no clear call; they are omitted.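 How the source made its calls: active means activation of at least 60% and not above a set upper limit (about 1 call in 100 departs from these limits); inconclusive means activation of 40% to 60%, or above that upper limit; inactive means activation under 40%.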 This is one part of the list.

For this experiment, the target named is Probable G-protein coupled receptor 32 (Homo sapiens) (UniProt O75388). Put plainly: qHTS for Agonists of Human Resolvin D1 Receptor DRV1. The conditions noted are these: CHO-K1 GPR32 beta-arrestin PathHunter luminescence, 90 min; at 76.9 µM; stronger effect = higher value; zero percent set by DMSO-only wells. In outline: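 Using DMSO wells as EC0, agonist-induced signal was taken as chemiluminescence from beta-Gal reconstituted upon beta-arrestin recruitment to GPR32 in CHO-K1 cells after 90 min compound treatment.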
UniProt O75388, sequence (O75388 whole entry, looked up): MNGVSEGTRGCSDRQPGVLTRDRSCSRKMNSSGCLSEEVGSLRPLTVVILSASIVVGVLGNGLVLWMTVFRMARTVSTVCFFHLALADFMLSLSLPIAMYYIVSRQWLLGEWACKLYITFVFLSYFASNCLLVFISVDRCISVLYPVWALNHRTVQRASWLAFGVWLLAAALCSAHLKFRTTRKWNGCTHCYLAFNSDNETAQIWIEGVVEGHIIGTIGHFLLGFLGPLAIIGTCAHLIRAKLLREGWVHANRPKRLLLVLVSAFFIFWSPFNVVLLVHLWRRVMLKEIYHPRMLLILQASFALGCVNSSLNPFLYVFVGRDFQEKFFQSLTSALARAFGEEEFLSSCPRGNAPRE
Regarding `Cc1cc(C)cc(NC(=O)CCCn2c(=O)c3cccn3c3ccccc32)c1`, the activation is inactive: -12.6%.
`CCOc1ccc(NC(=O)CC2C(=O)N(c3ccccc3)C(=O)N2Cc2cccc(OC)c2)cc1` (stereo not drawn): the activation is inactive: -13.5%.
To `O=C(c1cnc(N2CCCCC2)c2ccccc12)N1CCN(c2cccc(Cl)c2)CC1` belongs inactive: -28.8%; to `COCCCNC(=O)c1nn(-c2ccc(C)cc2)c(=O)n(C)c1=O`, inactive: 3.35%.
As to `CCc1cccc(NC(=O)Cn2ncc3c([nH]c4ccc(C)cc43)c2=O)c1`, the activation was inactive: -11%.
Regarding `CCOc1ccccc1NC(=O)CCc1c(C)nc2c3cccnc3nn2c1C`, the activation is inactive: -9.43%.
Consider `CCCCNc1sc(S(=O)(=O)CCC)nc1S(=O)(=O)c1ccc(C)cc1`, for which the activation was inactive: -25%.
Regarding `COc1ccc(Cl)cc1C1CC(=O)Nc2cc3c(cc21)OCCO3` (stereo not drawn), the activation is inactive: -9.58%.
Turning to `CCNC(=O)c1c2c(nc3ccccc13)C(=O)N(C1CCCCC1)C2`, the activation was inactive: -1.2%.
`O=C(Cn1c(SCc2ccccc2F)nc2cccnc21)Nc1ccc(F)c(Cl)c1`: the activation was inactive: -3.68%.
Take `Cc1ccc(CN2C(=O)c3ccccc3Sc3ccc(C(=O)NC4CCCC4)cc32)cc1`: the activation is inactive: 2.06%.
Consider `O=C(NC1CC(=O)N(c2ccccc2)C1)c1ccco1` (stereo not drawn), for which the activation was inactive: 2.74%.
Consider `Cc1ccc(C(=O)N2CCc3cc(CNC(=O)CCc4ccccc4)ccc32)cc1`, for which the activation was inactive: -36.5%.
On to `CCc1cccc(NC(=O)CN(c2ccc(C)cc2)S(=O)(=O)c2cccs2)c1`, for which the activation is inactive: 6.71%.
The result for `O=C(Nc1ccc(F)cc1)Nc1ccc2snnc2c1` reads inactive: 39.1%; that for `CCNC(=O)C1CCN(Cc2cc3ccccc3n2Cc2ccc(C)cc2)CC1`, inactive: -3.57%; that for `CCOC(=O)c1c(C)oc2nc(C)nc(N3CCN(c4ccc(OC)cc4)CC3)c12`, inactive: -16.6%.
For the molecule `CCOc1ccccc1CNC(=O)CCCN1C(=O)c2cccnc2Oc2ccc(Cl)cc21`, the activation is inactive: -27.1%.
To `COc1ccccc1Cn1c(SCC(=O)C(C)(C)C)nc2ccccc2c1=O` belongs inactive: -6.21%; to `O=C(OCCN1CCOCC1)C1(c2ccccc2)CCCCC1`, inactive: -12.7%.
The result for `O=C(c1cccn1-c1nnc(N2CCCCC2)s1)N1CCN(c2ccccc2)CC1` reads inactive: -15.9%; that for `Clc1cccc(CSc2ccc(-c3cccs3)nn2)c1`, inactive: -21.5%; that for `COC(=O)CN1C(C(=O)c2ccccc2)=C(OC(=O)c2ccc(C)cc2)c2ccccc2S1(=O)=O`, inactive: 0.589%.
Turning to `CCS(=O)(=O)c1ccccc1C(=O)N1CCN(c2nc3ccccc3s2)CC1`, the activation is inactive: 15.1%.
To `N#Cc1ccc(CSc2nnc(-c3ccc(Br)cc3)o2)cc1` belongs inactive: -10.9%; to `CCn1c(=O)c2sccc2n2c(CCC(=O)NCc3ccc(Cl)cc3)nnc12`, inactive: -8.03%; to `Cc1oc(-c2cccc(Cl)c2)nc1CSCC(=O)NCc1ccccc1Cl`, inactive: 5.69%.
For `CCOC(=O)C1CCN(C(=O)Cn2ncc3c4ccccc4n(C)c3c2=O)CC1`, the activation is inactive: 10.5%.
In the case of `COc1ccc(CNC(=O)CCCN2C(=O)c3cccnc3Oc3ccc(Cl)cc32)cc1`, the activation was inactive: -21.3%.
As to `Cc1cccc(NS(=O)(=O)c2nnc(NC(=O)c3cccc(C)c3)s2)c1`, the activation is inactive: 21.8%.
To `Cc1ccc(-n2c(SCC(=O)Nc3ccc4c(c3)OCCO4)nc3c([nH]c4ccccc43)c2=O)cc1` belongs inactive: -19.8%; to `Cc1csc2nc(COC(=O)c3ccc(NC(=O)C(C)C)cc3)cc(=O)n12`, inactive: 0.626%; to `CC(C)OCCCNC(=O)CN1C(=O)COc2ccc(S(=O)(=O)N3CCOCC3)cc21`, inactive: -2.64%.
For the molecule `COc1ccccc1NC(=O)c1ncoc1-c1ccco1`, the activation is inactive: -0.104%.
Take `Cc1cccc(NC(=O)c2cc3c(=O)n4ccccc4nc3n2C)c1C`: the activation was inactive: -4.34%.
To `CCCCNC(=O)Cn1cnc2sc(C)c(S(=O)(=O)N3CCN(c4ccccc4OC)CC3)c2c1=O` belongs inactive: 1.14%.
On to `COCCNC(=O)c1ccc(-c2nc(CN3CCc4ccccc43)c(C)o2)cc1`, for which the activation was inactive: 13.2%.
`Cc1ccc(OCC(=O)Nc2sc3c(c2C(N)=O)CCCC3)c(C(C)(C)C)c1`: the activation is inactive: 8.11%.
To `CCOC(=O)c1ccc(NC(=O)CN2CCCCC2)cc1` belongs inactive: -23.5%.
`O=C(Cn1ncc2c3ccccc3n(Cc3ccccc3F)c2c1=O)NCCCc1ccccc1`: the activation was inactive: -5.95%.
Regarding `CC(CC(C#N)(c1ccccc1)C(C)C)N(C)C` (stereo not drawn), the activation was inactive: -33.7%.
As for `CCOc1ccc2nc(NC(=O)c3ccccc3)sc2c1`, the activation was inactive: 1.1%.
The result for `CCOc1ccccc1C(=O)N(Cc1ccco1)Cc1ccccc1F` reads inactive: -27.8%; that for `COC(=O)c1ccccc1NC(=O)CSc1nc2nc(C)cc(C)n2n1`, inactive: -4.26%; that for `COc1ccc(-c2noc(-c3ccc(NC4CCCCC4)c([N+](=O)[O-])c3)n2)cc1`, inactive: 18.7%.
To `CCc1nn2c(=O)cc(COC(=O)c3ccc(NC(=O)C4CCCCC4)cc3)nc2s1` belongs inactive: -13.3%; to `CCC1CCc2nc3sc(C(=O)Nc4cccc(C(F)(F)F)c4)c(N)c3cc2C1` (stereo not drawn), inactive: 21%.
In the case of `O=C(COc1ccc(F)cc1)Nc1ccccc1OCc1cc(=O)n2ccccc2n1`, the activation is inactive: -13%.
Consider `COc1cccc(NC(=O)c2ccc3[nH]c(C)cc(=O)c3c2)c1`, for which the activation is inactive: -0.0785%.
Regarding `O=C(CCn1c(=O)c2cccn2c2cccnc21)NCc1ccccc1F`, the activation is inactive: -8.52%.
For `COc1ccc(S(=O)(=O)Nc2cc3c(cc2N2CCOCC2)n(C)c(=O)n3C)cc1`, the activation is inactive: -9.08%.
For the molecule `CCCc1cc(=O)oc2cc(C)c3c(C(C)(C)C)coc3c12`, the activation was inactive: 10.5%.
For `COC(=O)c1ccc(Cn2nc(-c3ccc(C)cc3)ccc2=O)cc1`, the activation was inactive: -44.6%.
`NC(=O)c1ccccc1O`: the activation was inactive: -1.12%.
For the molecule `Cn1c(SCc2ccccc2Cl)nc2c([nH]c3ccccc32)c1=O`, the activation is inactive: 0.094%.
Take `CCc1cccc(NC(=O)c2oc3ccc4c(c3c2C)C(=O)CC(C)(C)O4)c1`: the activation was inactive: -4.82%.
The result for `NC(=O)CSc1nnnn1-c1cccc(O)c1` reads inactive: 7.97%; that for `COc1cccc(CN2C(=O)C3(SCC(=O)N3c3ccc(C(C)C)cc3)c3ccccc32)c1` (stereo not drawn), inactive: -14.6%.
